Experimental data reported in PubChem BioAssay AID686978 (National Center for Advancing Translational Sciences (NCATS), 2013).
About 64,000 (15%) of roughly 420,000 compounds were called active. Inconclusive means that the source gave no clear call. Such entries were picked first, then a sample of the others. Calls come from the whole dose curve; as a rule, active = well fitted inhibition curve with a large enough effect; inconclusive = small, poorly fitted or top-dose-only effect; inactive = flat fitted curve, though single readings scatter. No potency is given beside an inconclusive call; the fits are too rough.

Assay: qHTS for Inhibitors of human tyrosyl-DNA phosphodiesterase 1 (TDP1): qHTS in cells in absence of CPT; note: nearly all actives have a fitted effect of over 55% in size
Details: DT40 Tdp1-/- hTDP1 cells, no CPT, ATP luminescence, 48 h; activity change, negative = growth inhibition: at 46.2 µM (top of the series)
Procedure, shortened: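 Chicken DT40 Tdp1-/- cells complemented with human TDP1, screened without camptothecin (DMSO vehicle only), 400 cells/well. Compounds pin-transferred, cells incubated at 37 °C for at least 48 hr. Growth read as ATP-dependent luminescence (CellTiter-Glo, 30 min at RT).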
% is set by controls: 0 for no effect and ±100 for the full control effect; potency is the fitted concentration of half-maximal effect; tags give direction and shape of the fitted curve.

Compound | Potency | activity change, negative = growth inhibition
CSCCC(C(=O)Nc1c(C)cccc1C)n1c(-c2cc(C)cs2)nc2ccccc21 (stereo not given) | inconclusive [inhibitor, single point] | –
Cc1cccc(CSc2nnc([C@@H]3CCCN3)o2)c1 | – | inactive: -9.07%
CCOc1cccc(/C=N/Nc2ccc(S(=O)(=O)N(CC)CC)cn2)c1O | active: 0.58 µM | –
Cc1ccc(NS(=O)(=O)c2ccc(C(=O)NCCN3CCOCC3)cc2)cc1 | inconclusive [inhibitor, partial curve] | –
COc1ccccc1C(=O)Nc1ccccc1C(=O)N1C(C)CCCC1C (stereo not given) | inconclusive [inhibitor, single point] | –
CCSc1nc2sc3c(c2c(=O)n1-c1ccc(C)c(Cl)c1)CCN(C(C)=O)C3 | inconclusive [inhibitor, single point] | –
COc1cc(NC(=O)c2ccccc2Cl)c2ncccc2c1 | inconclusive [inhibitor, single point] | –
CCOC(=O)C1(Cc2cccc(F)c2)CCN(Cc2ccon2)CC1 | inconclusive [inhibitor, single point] | –
CN(Cc1ccco1)C(=O)Cn1nc(-c2ccc(Cl)cc2)ccc1=O | inconclusive [inhibitor, single point] | –
N#Cc1c(-c2ccccc2)nc(SCc2nc(N)nc(N3CCCCC3)n2)[nH]c1=O | inconclusive [inhibitor, single point] | –
CCOC(=O)c1nc(N/N=C/c2ccccc2)sc1Br | inconclusive [inhibitor, single point] | –
O=C1COc2ccc(C(=O)CSc3nc4ccccc4c(=O)n3-c3ccc(Cl)c(Cl)c3)cc2N1 | inconclusive [inhibitor, single point] | –
Cc1cccn2c(=O)c(C=NCc3ccco3)c(Nc3ccc(SC(F)F)cc3)nc12 | inconclusive [inhibitor, single point] | –
O=C1C=CC(=O)N1Cc1ccncc1 | – | inactive: -2.91%
O=c1nc(Nc2ccccc2)sc2ccc([N+](=O)[O-])cc12 | inconclusive [inhibitor, single point] | –
COc1ccc(CN(CCN(C)C)Cc2ccccc2)c(OC)c1 | inconclusive [inhibitor, partial curve] | –
Cc1sc2ncnc(SCC(=O)NC(C)(C)C)c2c1C | – | inconclusive: -34.4% [inhibitor]
Cc1ccc(OCc2cc(C(=O)NCCc3cccnc3)no2)cc1C | inconclusive [inhibitor, single point] | –
Cc1cc(Cl)ccc1OCCSc1nnc(-c2cccs2)o1 | inconclusive [inhibitor, single point] | –
O=C(NC12CC3CC(CC(C3)C1)C2)OCCNC1CCCCC1 | inconclusive [inhibitor, partial curve] | –
COc1ccc(C=C2NC(=O)NC2=O)cc1O | – | inactive: -23.1%
CC1CC(C)CN(C(=O)C(C)N2CCN(S(=O)(=O)c3ccc(C(F)(F)F)cc3)CC2)C1 (stereo not given) | inconclusive [inhibitor, single point] | –
CCOC(=O)c1cc2[nH]c3ccccc3c2[n+](-c2ccc([N+](=O)[O-])cc2)c1C | inconclusive [inhibitor, single point] | –
OCCCNC(=S)NC1CCCC1 | – | inactive: 9.81%

Compound | Potency | activity change, negative = growth inhibition
CN(C)CCCSc1nc(-c2ccccc2)nc2c1CCC2 | inconclusive [inhibitor, single point] | –
C#CCNC(=O)C[C@@H]1C[C@@]2(C(=O)OCC)CCCC=C2N(CCC2=CCCCC2)C1=O | active: 14.6 µM | –
O=C(C[N+]12CN3CN(CN(C3)C1)C2)c1ccc(Cl)cc1 | – | inconclusive: -35.6% [inhibitor]
Cc1nn(-c2ccccc2)c(N)c1N=Nc1ccc(Cl)cc1 | inconclusive [inhibitor, single point] | –
CC1CCN(C(=S)NCCc2ccccc2)CC1 | inconclusive [inhibitor, single point] | –
Cc1noc(C)c1NC(=O)Nc1cccc2c1O[C@@H](CN(C)Cc1ccc3c(c1)OCO3)[C@@H](C)CN([C@H](C)CO)C2=O | – | inactive: -7.75%
CN(C)c1ncc2nc(-c3ccccc3)c(=O)n(C[C@H]3CCCO3)c2n1 | – | inactive: 4.8%
Cc1ccccc1Cn1cc(S(=O)(=O)c2ccc(F)cc2)c(=O)c2cc3c(cc21)OCO3 | inconclusive [inhibitor, single point] | –
Cc1cnccc1CNC(=O)CC1C(=O)NCCN1CC(C)(C)C (stereo not given) | – | inactive: -1.11%
CCN(CC(=O)Nc1ccc(OC)cc1)CC(=O)Nc1sc2c(c1C(=O)OC)CCCC2 | inconclusive [inhibitor, single point] | –
O=C(CSc1ccc(Br)cc1)NCC1(N2CCCCC2)CCCCC1 | inconclusive [inhibitor, single point] | –
O=[N+]([O-])c1cc(-c2nc3nc4ccccc4nc3n2CCc2ccccc2)cc([N+](=O)[O-])c1 | inconclusive [inhibitor, single point] | –
Cc1cccc(NNC(=O)C2CCC2)c1 | – | inactive: -0.194%
Cc1ccc(NC(=O)Cn2c(=O)n(CCCCC(=O)NCCc3ccccc3)c(=O)c3ccccc32)cc1 | – | inactive: -16.6%
COC(=O)c1c(C)oc(C)c1S(=O)(=O)N1CCOCC1 | – | inactive: -5.07%
COc1ccccc1C(C)NCC(=O)c1c(C)[nH]c2ccccc12 (stereo not given) | active: 17.8 µM | –
COC(=O)c1sccc1S(=O)(=O)N(CC(=O)Nc1cc(F)ccc1F)c1ccc(C)c(C)c1 | active: 13 µM | –
COc1ccc(C2CC(c3ccccc3)n3nc(NC(=O)c4cccs4)nc3N2)cc1 (stereo not given) | inconclusive [inhibitor, single point] | –
CC1(C)Oc2ccc3ccc(=O)oc3c2/C(=C/Nc2cccc(O)c2)C1=O | active: 20.6 µM | –
CCCOc1ccc(C(=O)C(CCC(CNCC)C(=O)c2ccc(OCCC)cc2)CNCC)cc1 (stereo not given) | active: 0.92 µM | –
COc1cccc2c3cccc(OC)c3c3[nH]cnc3c12 | active: 7.31 µM | –
COc1ccccc1NC(=S)N(CCc1ccc(OC)c(OC)c1)Cc1ccccn1 | inconclusive [inhibitor, single point] | –
Cc1ccnn1CC(=O)N/N=C/c1cn[nH]c1-c1ccccc1 | – | inactive: -8.91%
O=C1C=C(c2cccc(Cl)c2)C[C@@H](c2ccc3c(c2)OCO3)C1 | inconclusive [inhibitor, single point] | –

Compound | Potency | activity change, negative = growth inhibition
C=CCNc1nc(Nc2ccc(OC)c(OC)c2)c2sc(-c3ccccc3)cc2n1 | active: 1.64 µM | –
COc1ccc(C)cc1NC(=O)CN(C)S(=O)(=O)c1ccc2[nH]c(=O)oc2c1 | inconclusive [inhibitor, single point] | –
CN(C(=O)CSCC(=O)Nc1ccc(Cl)cc1)C1CCCCC1 | active: 14.6 µM | –
CC(C)(C)Nc1nc(N2CCCC2)nc(N2CCCC2)n1 | active: 16.4 µM | –
COc1ccc(C(=O)C2CCCN(Cc3cc(Cl)ccc3O)C2)c(OC)c1 (stereo not given) | inconclusive [inhibitor, single point] | –
O=C(c1ccccc1-c1nc(-c2ccc(Cl)cc2)no1)N1CCCC1 | inconclusive [inhibitor, single point] | –
COc1ccc(NC(=O)c2ccccc2NC(=O)c2ccco2)c(OC)c1 | inconclusive [inhibitor, single point] | –
Cc1nn(C)c2c1c(C(F)(F)F)cc(=O)n2C(C)C(=O)NCCc1ccc(Cl)cc1 (stereo not given) | inconclusive [inhibitor, single point] | –
Cc1c(-c2cccc(NC(=O)c3ccc(F)c(F)c3)c2)nc2ncccn12 | active: 13 µM | –
C[C@H](NC(=O)c1[nH]cnc1C(=O)N[C@H](C)c1ccccc1)c1ccccc1 | inconclusive [inhibitor, single point] | –
O=C(CSc1nnc(Cc2cccs2)n1Cc1ccco1)Nc1ccc(Cl)cc1Cl | inconclusive [inhibitor, single point] | –
CCOC(=O)C1(Cc2ccc(Cl)cc2)CCN(Cc2ccon2)CC1 | inconclusive [inhibitor, partial curve, poor fit] | –
COc1ccc(NC(=O)CC(C)CC(=O)NCc2ccc(F)cc2)c(OC)c1 (stereo not given) | – | inactive: -1.87%
CSc1nc(N2CCOCC2)c2sccc2n1 | inconclusive [inhibitor, partial curve] | –
CCOc1cc(CN2CCN(C(=O)c3cccc4ccccc34)CC2)ccc1OC | – | inactive: -28.6%
CCCN1C(=O)/C(=C/c2c(NCCCOCC)nc3c(C)cccn3c2=O)SC1=S | – | inconclusive: -36.6% [inhibitor]
COC(=O)c1ccc(-c2sc3nc(N4CCOCC4)c4c(c3c2N)CC(C)(C)OC4)o1 | inconclusive [inhibitor, partial curve] | –
Cc1cc(Nc2ccccc2)n(-c2ccccc2)n1 | – | inconclusive: -36.9% [inhibitor]
O=[N+]([O-])c1ccc(CSc2ccc(S(=O)(=O)N3CCCCC3)cn2)cc1 | inconclusive [inhibitor, partial curve, poor fit] | –
O=S(=O)(c1cnc2ccccc2c1)N1CCN(c2nc(-c3cccs3)nc3ccccc23)CC1 | – | inactive: -21.4%
COc1ccc(OCc2ccc(-c3nc(C#N)c(NCc4ccccc4)o3)o2)cc1 | inconclusive [inhibitor, single point] | –
O=C(NN1C(=O)/C(=C/c2cccs2)SC1=S)c1cccnc1 | inconclusive [inhibitor, single point] | –
